Binding data for nine molecules are collected here from article PMC6549159.

Sequences of proteins named here, by UniProt entry; tags and fusion partners are left off. A change or cut given only in a name is not applied to a line headed by its entry. A line that says so, or that is headed by a name, gives the form on record, which may keep a tag or linker. Residues count along the entry.
UniProt O08808: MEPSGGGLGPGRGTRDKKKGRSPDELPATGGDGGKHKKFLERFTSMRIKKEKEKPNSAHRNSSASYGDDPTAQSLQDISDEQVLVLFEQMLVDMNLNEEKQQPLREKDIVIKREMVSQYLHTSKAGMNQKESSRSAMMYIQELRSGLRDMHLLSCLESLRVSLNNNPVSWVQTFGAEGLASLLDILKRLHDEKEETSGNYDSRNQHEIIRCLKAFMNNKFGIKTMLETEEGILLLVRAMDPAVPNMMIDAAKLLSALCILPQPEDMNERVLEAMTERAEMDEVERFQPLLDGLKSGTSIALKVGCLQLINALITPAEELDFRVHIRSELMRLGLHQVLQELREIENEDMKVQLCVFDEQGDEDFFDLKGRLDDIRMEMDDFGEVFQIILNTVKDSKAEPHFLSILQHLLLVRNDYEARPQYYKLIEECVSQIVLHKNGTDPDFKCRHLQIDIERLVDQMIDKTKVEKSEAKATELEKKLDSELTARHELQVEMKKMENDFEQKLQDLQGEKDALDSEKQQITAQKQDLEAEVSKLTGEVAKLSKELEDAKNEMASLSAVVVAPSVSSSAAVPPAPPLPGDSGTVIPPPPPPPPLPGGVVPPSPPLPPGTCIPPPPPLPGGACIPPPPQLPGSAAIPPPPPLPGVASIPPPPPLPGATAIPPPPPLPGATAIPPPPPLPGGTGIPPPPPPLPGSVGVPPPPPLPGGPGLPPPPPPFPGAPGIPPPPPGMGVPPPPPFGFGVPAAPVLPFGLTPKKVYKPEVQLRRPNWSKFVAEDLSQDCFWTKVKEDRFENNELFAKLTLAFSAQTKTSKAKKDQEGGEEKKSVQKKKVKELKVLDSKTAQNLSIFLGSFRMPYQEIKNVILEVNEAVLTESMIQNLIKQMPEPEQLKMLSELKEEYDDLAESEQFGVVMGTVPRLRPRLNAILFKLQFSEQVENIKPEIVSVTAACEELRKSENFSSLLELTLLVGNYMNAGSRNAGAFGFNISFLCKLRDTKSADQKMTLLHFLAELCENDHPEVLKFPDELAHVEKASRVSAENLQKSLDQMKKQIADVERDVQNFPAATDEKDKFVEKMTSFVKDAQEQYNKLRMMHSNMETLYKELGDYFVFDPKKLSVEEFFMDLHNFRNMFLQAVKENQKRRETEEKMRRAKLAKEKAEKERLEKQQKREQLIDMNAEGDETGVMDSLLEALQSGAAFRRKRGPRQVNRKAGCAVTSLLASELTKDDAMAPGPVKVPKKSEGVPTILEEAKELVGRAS
mDia1ΔN3 fused to GAL4 DNA-binding domain: residues 543-1192 of O08808
UniProt O35129: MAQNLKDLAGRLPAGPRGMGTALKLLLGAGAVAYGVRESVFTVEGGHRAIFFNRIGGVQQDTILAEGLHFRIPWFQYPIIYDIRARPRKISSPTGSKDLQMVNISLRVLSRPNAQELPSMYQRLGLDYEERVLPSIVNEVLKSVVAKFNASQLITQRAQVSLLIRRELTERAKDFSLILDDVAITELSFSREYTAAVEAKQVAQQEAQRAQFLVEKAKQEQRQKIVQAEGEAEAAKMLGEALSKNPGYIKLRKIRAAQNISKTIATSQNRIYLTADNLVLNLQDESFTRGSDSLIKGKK
flag-tagged Phb2-Amino (89-180 aa): residues 89-180 of O35129
flag-tagged Phb2 120-232 (120-232 aa): residues 120-232 of O35129
flag-tagged Phb2-Central (140-244 aa): residues 140-244 of O35129
flag-tagged Phb2-Carboxy (180-299 aa): residues 180-299 of O35129
UniProt Q60823: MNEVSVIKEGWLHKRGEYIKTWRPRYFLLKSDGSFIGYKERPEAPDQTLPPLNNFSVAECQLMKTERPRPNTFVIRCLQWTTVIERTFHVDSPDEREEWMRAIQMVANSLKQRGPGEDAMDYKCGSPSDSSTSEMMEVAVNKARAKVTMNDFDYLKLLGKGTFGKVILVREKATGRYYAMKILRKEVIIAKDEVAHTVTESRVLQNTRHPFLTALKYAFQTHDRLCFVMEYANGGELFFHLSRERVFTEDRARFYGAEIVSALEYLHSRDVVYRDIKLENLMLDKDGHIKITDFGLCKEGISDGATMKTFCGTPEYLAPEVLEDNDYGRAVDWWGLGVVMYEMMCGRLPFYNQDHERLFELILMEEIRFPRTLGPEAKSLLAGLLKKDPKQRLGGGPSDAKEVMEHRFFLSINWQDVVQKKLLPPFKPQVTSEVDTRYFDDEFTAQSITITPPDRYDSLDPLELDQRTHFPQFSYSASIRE
UniProt P10085: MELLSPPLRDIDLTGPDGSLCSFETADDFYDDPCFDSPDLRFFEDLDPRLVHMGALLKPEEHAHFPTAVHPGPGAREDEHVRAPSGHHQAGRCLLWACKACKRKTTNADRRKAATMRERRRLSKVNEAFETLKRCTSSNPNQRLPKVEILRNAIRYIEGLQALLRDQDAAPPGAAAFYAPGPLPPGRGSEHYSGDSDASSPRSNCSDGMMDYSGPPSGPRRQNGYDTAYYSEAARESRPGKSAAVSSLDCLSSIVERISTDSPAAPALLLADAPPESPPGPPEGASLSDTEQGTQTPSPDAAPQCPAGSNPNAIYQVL
UniProt Q02248: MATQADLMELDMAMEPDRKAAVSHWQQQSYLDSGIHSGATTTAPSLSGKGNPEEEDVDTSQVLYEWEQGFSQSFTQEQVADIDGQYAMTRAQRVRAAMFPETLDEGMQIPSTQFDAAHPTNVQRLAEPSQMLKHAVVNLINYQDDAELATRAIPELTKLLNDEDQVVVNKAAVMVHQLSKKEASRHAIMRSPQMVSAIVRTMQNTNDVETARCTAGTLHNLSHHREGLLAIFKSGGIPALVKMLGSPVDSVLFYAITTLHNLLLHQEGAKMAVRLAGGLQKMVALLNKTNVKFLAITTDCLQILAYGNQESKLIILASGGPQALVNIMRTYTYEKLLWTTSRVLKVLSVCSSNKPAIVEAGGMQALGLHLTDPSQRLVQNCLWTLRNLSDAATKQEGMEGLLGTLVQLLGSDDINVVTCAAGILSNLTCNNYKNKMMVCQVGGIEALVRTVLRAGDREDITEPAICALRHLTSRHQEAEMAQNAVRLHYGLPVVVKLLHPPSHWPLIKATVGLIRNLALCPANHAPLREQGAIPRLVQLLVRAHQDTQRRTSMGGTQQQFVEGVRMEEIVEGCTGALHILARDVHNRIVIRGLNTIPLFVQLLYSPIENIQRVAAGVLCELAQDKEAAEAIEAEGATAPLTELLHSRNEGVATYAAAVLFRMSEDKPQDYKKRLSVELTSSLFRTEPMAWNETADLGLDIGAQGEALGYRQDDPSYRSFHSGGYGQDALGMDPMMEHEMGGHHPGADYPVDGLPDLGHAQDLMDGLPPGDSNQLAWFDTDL

Assay [1] concerns the target mammalian Diaphanous1 (mDia1), endogenous (mouse (endogenous in C2C12)) (UniProt O08808). In words: co-IP; endogenous proteins, C2C12 myotubes in differentiation medium (D24, D72); IP with anti-mDia1 or anti-Phb2 antibody, western blot. For orientation: A western blot detects proteins with antibodies after separation by electrophoresis.
Assay [2] addresses flag-tagged Phb2-Y2H (aa 89-299) (mouse) (UniProt O35129). Put plainly: co-IP; HEK293T co-transfected with flag-tagged Phb2 construct and GFP-tagged mDia1 construct; IP with anti-flag antibody, blot with anti-GFP.
Assay [3] deals with flag-tagged Phb2-Central (140-244 aa) (mouse) (UniProt O35129). Described as above.
The target in assay [4] is flag-tagged Phb2 120-232 (120-232 aa) (mouse) (UniProt O35129). The assay is described as above.
The target in assay [5] is flag-tagged Phb2-Amino (89-180 aa) (mouse) (UniProt O35129). The assay is described as above.
The target of assay [6] is flag-tagged Phb2-Carboxy (180-299 aa) (mouse) (UniProt O35129). Described as above.
Assay [7] has as its target mammalian Diaphanous1 (mDia1), endogenous (mouse (endogenous in C2C12)) (UniProt O08808). Put plainly: co-IP; endogenous proteins, proliferating C2C12 myoblasts in growth medium (GM); IP with anti-mDia1 or anti-Phb2 antibody, western blot.
Assay [8] concerns the target mDia1ΔN3 fused to GAL4 DNA-binding domain (mouse) (UniProt O08808). In words: two-hybrid; mDia1ΔN3-BD (pGBKT7) as bait, mouse embryonic cDNA library in pACT2 as prey, S. cerevisiae PJ69-4A; ADE2 and LacZ reporters; positive clones re-tested by hybrid reconstitution against empty pGBKT7.
For assay [9], the target named is mammalian Diaphanous1 (mDia1), endogenous (mouse (endogenous in C2C12)) (UniProt O08808). Put plainly: co-IP; cytoplasmic extract of D72 C2C12 myotubes; IP with anti-mDia1 antibody, blot for Phb2.
Assay [10] concerns the target Prohibitin2 (Phb2), endogenous (mouse (endogenous in C2C12)) (UniProt O35129). Put plainly: co-IP; endogenous proteins, C2C12 myotubes in differentiation medium (D24, D72); IP with anti-mDia1 or anti-Phb2 antibody, western blot.
Assay [11] has the same target. Put plainly: co-IP; endogenous proteins, proliferating C2C12 myoblasts in growth medium (GM); IP with anti-mDia1 or anti-Phb2 antibody, western blot.
Assay [12] deals with mammalian Diaphanous1 (mDia1), endogenous (mouse (endogenous in C2C12)) (UniProt O08808). Put plainly: co-IP; endogenous proteins, C2C12 myotubes in differentiation medium (D24, D72); IP with anti-mDia1 or anti-Phb2 antibody, western blot. This is another data set of the same source.

No constants are given. Whether binding was seen depends on the method and setting. For some assays here: In cells and extracts the contact can be indirect. Some entries that bind do so weakly or less than the wild type.

In the case of “Akt2, endogenous (from UniProt Q60823 1-481)”, in assay [1], the binding result is reported as “binds”. With “GFP-tagged mDia1ΔN3 (from UniProt O08808 543-1192) (domain or fragment)”, the binding result in [2] was “binds”; in assay [3], “binds”; in assay [4], “binds”; in assay [5], “no binding”; in [6] it was “binds”. On to “MyoD, endogenous (from UniProt P10085 1-318)”, for which the binding result in assay [1] is “binds”; in [7], “no binding (condition: in proliferating myoblasts (GM))”. On to “Phb2-AD, partial Prohibitin2 clone recovered in the yeast two-hybrid screen (from UniProt O35129 89-299) (domain or fragment)”, for which the binding result in assay [8] is “binds”. Take “Prohibitin2 (Phb2), endogenous (from UniProt O35129 1-299)”: the binding result in [1] is “binds”; in [7] it was “no binding (condition: in proliferating myoblasts (GM))”; in assay [9], “binds”. For the molecule “active β-Catenin, endogenous (from UniProt Q02248 1-781)”, the binding result in assay [1] is given as “binds”. Consider “mammalian Diaphanous1 (mDia1), endogenous (from UniProt O08808 1-1255)”, for which the binding entry in [10] is reported as “binds”; in assay [11], “no binding (condition: in proliferating myoblasts (GM))”. With “pAkt2 Ser474, endogenous (from UniProt Q60823 1-481)”, the binding result in [1] is given as “binds”.

B1: Prohibitin1 (Phb1), endogenous (protein, UniProt P67778 1-272)
chain: MAAKVFESIGKFGLALAVAGGVVNSALYNVDAGHRAVIFDRFRGVQDIVVGEGTHFLIPWVQKPIIFDCRSRPRNVPVITGSKDLQNVNITLRILFRPVASQLPRIYTSIGEDYDERVLPSITTEILKSVVARFDAGELITQRELVSRQVSDDLTERAATFGLILDDVSLTHLTFGKEFTEAVEAKQVAQQEAERARFVVEKAEQQKKAAIISAEGDSKAAELIANSLATAGDGLIELRKLEAAEDIAYQLSRSRNITYLPAGQSVLLQLPQ
Take B1: the binding result in assay [12] is “binds”.
